Laboratory results as given in publication PMC4336329 (PLoS ONE, 2015).
The whole screen tested about 310,000 compounds, of which about 14,000 (4.5%) showed an effect of 50% or more. Effects have a minus sign here. This is one part of the list.

target: human ether-à-go-go-related gene (hERG) potassium channel (human, UniProt Q12809); test: primary screen, population patch clamp on CHO cells stably expressing hERG
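Note: peak tail current of the secondary pulse compared with the same well before compound.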

Chain of human ether-à-go-go-related gene (hERG) potassium channel (Q12809 whole entry, looked up): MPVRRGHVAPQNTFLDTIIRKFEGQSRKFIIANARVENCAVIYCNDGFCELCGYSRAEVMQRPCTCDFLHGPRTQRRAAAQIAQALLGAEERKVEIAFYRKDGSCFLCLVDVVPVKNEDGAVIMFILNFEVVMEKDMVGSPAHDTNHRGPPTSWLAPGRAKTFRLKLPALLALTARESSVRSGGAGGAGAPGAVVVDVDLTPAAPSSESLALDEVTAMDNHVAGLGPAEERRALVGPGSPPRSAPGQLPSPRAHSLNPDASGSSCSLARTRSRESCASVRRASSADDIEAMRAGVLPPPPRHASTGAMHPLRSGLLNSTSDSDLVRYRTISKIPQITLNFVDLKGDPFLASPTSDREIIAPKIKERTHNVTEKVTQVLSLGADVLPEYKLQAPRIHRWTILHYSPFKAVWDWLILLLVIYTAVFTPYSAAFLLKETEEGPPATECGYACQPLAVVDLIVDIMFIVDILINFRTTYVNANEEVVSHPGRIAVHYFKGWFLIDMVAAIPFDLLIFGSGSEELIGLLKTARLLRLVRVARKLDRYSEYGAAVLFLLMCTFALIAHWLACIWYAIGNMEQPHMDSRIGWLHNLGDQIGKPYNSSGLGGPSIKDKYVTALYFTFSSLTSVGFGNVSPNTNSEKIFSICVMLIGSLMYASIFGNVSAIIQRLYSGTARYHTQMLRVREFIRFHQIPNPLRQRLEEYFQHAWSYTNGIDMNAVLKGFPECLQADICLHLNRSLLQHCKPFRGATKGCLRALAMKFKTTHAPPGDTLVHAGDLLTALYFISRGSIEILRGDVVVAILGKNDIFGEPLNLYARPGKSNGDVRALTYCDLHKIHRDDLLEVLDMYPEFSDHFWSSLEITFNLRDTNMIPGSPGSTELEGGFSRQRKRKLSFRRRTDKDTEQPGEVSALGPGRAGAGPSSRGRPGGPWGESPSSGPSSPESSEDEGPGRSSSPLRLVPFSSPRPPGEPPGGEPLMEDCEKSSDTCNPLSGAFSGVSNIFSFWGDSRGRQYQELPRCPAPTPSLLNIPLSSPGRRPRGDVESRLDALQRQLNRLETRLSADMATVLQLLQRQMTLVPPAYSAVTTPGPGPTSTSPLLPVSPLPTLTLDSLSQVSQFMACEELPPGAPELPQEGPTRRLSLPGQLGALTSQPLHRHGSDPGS

Row | SMILES | hERG current change (%, negative = inhibition) at 10uM [%]
1 | Cc1cc(NC(=O)CSc2nnc(CNc3cccc(C(F)(F)F)c3)n2Cc2ccco2)no1 | -8.93
2 | Nc1ccccc1SCCS(=O)(=O)c1ccc(Cl)cc1 | 24.5
3 | Cc1ccccc1C(=O)Nc1ccnn1C1CCN(Cc2ccncc2)CC1 | -45.1
4 | COc1ccc(COC(=O)C2CCN(C(=O)c3ccc(Cl)cc3)CC2)cc1F | -52.2
5 | COc1ccc(S(=O)(=O)N2CCC(C(=O)NC3CC3)CC2)cc1C | 8.22
6 | O=C(CCc1nnc(Cc2ccc(-c3ccccc3)cc2)o1)N1CCCC1 | -13
7 | Cc1ccc(-n2c(SCC(=O)N(C)C)nnc2-c2ccco2)cc1 | 4.74
8 | CCCCOc1ccc(C(=O)N/C(=C/C=C/c2ccccc2)C(=O)N2CCOCC2)cc1 | -5.66
9 | COCCNC(=S)Nc1ccccc1Cc1ccccc1 | 1.69
10 | Cc1ccc(NC(=O)Cn2nnc(C(=O)NCCc3ccccc3)c2N)cc1Cl | 13.3
11 | CN1C(=O)CC(C(=O)O)SC1=Nc1ccc(F)cc1 (stereo not drawn) | -14.5
12 | Cc1ccc([N+](=O)[O-])cc1NC(=O)C(C)NS(=O)(=O)c1ccc(F)cc1 (stereo not drawn) | 7.08
13 | O=C(Oc1ccc(-c2cnc3ccccc3n2)cc1)c1ccco1 | 11.8
14 | Cc1cc(-c2cc(N)n(-c3ccccc3)n2)c(C)n1C1CCCC1 | -16.8
15 | COc1cc([N+](=O)[O-])ccc1NC(=O)CSc1nccn1C | 3.14
16 | COc1ccc(NC(=O)CN(C)C(=O)/C=C/c2cn(Cc3ccccc3)nc2-c2cccnc2)cc1 | -25.9
17 | O=C(CN(c1ccc(Cl)cc1)S(=O)(=O)c1ccc(Cl)c([N+](=O)[O-])c1)NCCc1ccc(F)cc1 | 5.16
18 | O=C(c1cc2c(s1)CCC2)N1C(=O)c2ccccc2S1(=O)=O | 12.9
19 | CCOC(=O)c1nc(N/N=C/c2ccccc2)sc1Br | 0.605
20 | CCCCC(=O)NC(c1ccco1)c1cc(Cl)c2cccnc2c1O (stereo not drawn) | -31.6
21 | CC1CCc2sc(C(=O)N/N=C/c3ccc([N+](=O)[O-])cc3)cc2C1 (stereo not drawn) | -1.2
22 | CCC(C)n1nccc1NC(=O)C(C)OC(=O)c1cc2ccccc2[nH]1 (stereo not drawn) | -16.9

Row | SMILES | hERG current change (%, negative = inhibition) at 10uM [%]
23 | COc1ccc(NC(=S)N(CCCN2CCOCC2)Cc2cn(C)c3ccccc23)cc1OC | -0.53
24 | CCC(=O)NNC(=S)NC(=O)c1ccc(C)cc1 | 22.4
25 | CC(C)C[C@H](NC(=O)c1[nH]cnc1C(=O)N[C@@H](Cc1ccccc1)C(=O)OCc1ccccc1)C(=O)OC(C)(C)C | -1.12
26 | Fc1ccc(COc2ccc(-c3nnco3)cc2)cc1 | -2.32
27 | CCCOc1ccc(C(=O)NNC(=O)CCNC(=O)c2ccccc2Cl)cc1OC | -7.19
28 | O=C(CNS(=O)(=O)c1ccc(Br)cc1)OCc1cc(=O)n2cc(Br)ccc2n1 | -26
29 | Cc1nc2sc(C(=O)Nc3ccccc3)c(N)c2c(C)c1[N+](=O)[O-] | -6.05
30 | CS(=O)(=O)c1ccc(Cl)c(NC(=O)COC(=O)c2cccc(S(=O)(=O)N3CCCCC3)c2)c1 | -30.9
31 | O=C(OCc1ccc([N+](=O)[O-])cc1)C1CC(=O)N(CCc2ccccc2)C1 (stereo not drawn) | -69.4
32 | O=C(CSc1ccccc1)Nc1nnc(C2CC2)s1 | 16.9
33 | O=c1[nH]c(O)c(N=Nc2cccc(S(=O)(=O)N3CCOCC3)c2)c(=O)[nH]1 | -73.7
34 | N/C(=N\OC(=O)Cc1ccccc1[N+](=O)[O-])c1ccc(Br)cc1 | 26.1
35 | COCC(=O)N(Cc1ccc(OC)cc1)Cc1nc2ccccc2c(=O)[nH]1 | 8.13
36 | CC(Oc1ccccc1)C(=O)OCC(=O)NC(=O)NC1CCCCC1 (stereo not drawn) | 3.72
37 | NC(=NC(=O)c1ccc(Cl)cc1)N1N=CCC1c1ccccc1 (stereo not drawn) | 10.6
38 | COc1ccccc1NC(=O)COC(=O)c1ccccc1OCC(=O)Nc1ccc(SC(F)F)cc1 | 1.67
39 | O=S(=O)(Nc1ccc2cn[nH]c2c1)c1ccc(Cl)s1 | 21.4
40 | CSc1ccccc1NC(=O)CN(C)C(=O)c1ccc2c(c1)OCCO2 | 5.66
41 | COc1cccc(/C=C2\N=C(c3cncc(Br)c3)OC2=O)c1 | 11.8
42 | CC(C)(C)NC(=O)c1ccncc1 | 7.71
43 | CCc1ncc(C)nc1CC | 12.5
44 | C/C(=C\C(=O)c1ccccc1)Nc1ccc(N2CCOCC2)cc1 | 14.7

Row | SMILES | hERG current change (%, negative = inhibition) at 10uM [%]
45 | O=S(=O)(c1ccc(OCc2ccc(Br)cc2)cc1)N1CCOCC1 | -1.14
46 | O=C(NCCc1ccc(Cl)cc1)C1CCC(=O)N1Cc1ccc(F)cc1 (stereo not drawn) | -11.8
47 | OCC1(Cc2ccc(F)cc2F)CCCN(Cc2ccc(Cl)cc2)C1 (stereo not drawn) | -74.6
48 | COc1ccc(C[C@H]2CN3C(=NC[C@@H]3Cc3ccccc3)N2CCNC(=O)c2ccc(C)c(Br)c2)cc1 | -74
49 | COc1ccc(S(=O)(=O)N2CCCC2CNC(=O)C(=O)NC2CCCCCC2)cc1 (stereo not drawn) | -45.6
50 | COc1ccc(C(O)P(=O)(OCC(C)C)OCC(C)C)c(OC)c1 (stereo not drawn) | 25.7
51 | COC(=O)CN1C(=S)N(c2ccccc2)C(=O)C1CC(=O)Nc1ccc(Cl)cc1 (stereo not drawn) | 9.22
52 | CCOc1ccc(-c2nc(CSCC(=O)NCC3CCCO3)c(C)o2)cc1 (stereo not drawn) | -1.16
53 | COc1cccc(CCNCc2c(F)cccc2F)c1.O=C(O)C(=O)O | -15.1
54 | O=c1onc(-c2ccc(Cl)cc2)n1Cc1ccc(F)cc1 | -15.8
55 | CCOC(=O)C1=C(C)N(CCCC(=O)O)C(=O)NC1C(CC)CC (stereo not drawn) | 13
56 | CCn1c(SCC(=O)Nc2nc(-c3ccccc3)cs2)nnc1-c1ccccc1O | -20.8
57 | Cc1cccc(C)c1OCC(=O)Nn1c(=O)[nH]c2ccccc2c1=O | 7.16
58 | O=c1c2ccccc2n2c(-c3cccc(F)c3)nnc2n1Cc1ccccc1 | 13.3
59 | Cc1c(CNC2CCC(C)CC2)c(C(=O)O)c(C)n1Cc1ccccc1 (stereo not drawn) | -5.2
60 | COc1cc(C(=O)NC(=S)Nc2ccc(Cl)cn2)cc(OC)c1OC | -0.746
61 | CCCCCCOc1ccc(OCC(O)CN2C(=O)NC(C)(C)C2=O)cc1 (stereo not drawn) | 12.1
62 | O=C(NNC(=O)c1ccc(Cl)c(Cl)c1)c1cccnc1 | 0.538
63 | CCOC(=O)c1csc(NC(=O)c2cc(OC)c(OC)c(OC)c2)n1 | -47.8
64 | O=c1[nH]ncc2c3ccccc3n(Cc3ccccc3F)c12 | 10.1
65 | N#C/C(=C\c1ccc(Sc2ccccc2)o1)c1nc2ccccc2[nH]1 | 0.91
66 | O=C(COC(=O)/C=C/c1cccc(Cl)c1)NCCc1ccc(Cl)cc1Cl | 10.3

Row | SMILES | hERG current change (%, negative = inhibition) at 10uM [%]
67 | COc1ccc(OC)c(CN2CCC(C(=O)N3CCN(c4ccccc4F)CC3)CC2)c1.O=C(O)C(=O)O | -65.3
68 | CCc1ccc(NC(=O)C2=CC(c3ccc(OC)cc3)=NS(=O)(=O)N2C)cc1 | -15.2
69 | COc1ccc(Br)cc1C1Nc2ccccc2C(=O)N1NC(=O)c1ccncc1 (stereo not drawn) | -21
70 | C=CCN(c1ccccc1)S(=O)(=O)c1ccc2c(c1)NC(=O)C(C)S2 (stereo not drawn) | 5.73
71 | Cc1ccccc1N1CCN(C(=O)C2CCCCC2)CC1 | 0.863
72 | CCOc1ccc(OCCOc2ccc(/C=C/C(=O)O)cc2OCC)cc1 | 6.53
73 | COc1ccc(S(=O)(=O)N2CCOCC2)cc1NC(=O)c1cc2c(s1)CCCC2 | -11.4
74 | COc1cc(NC2c3ccccc3C(=O)N2Cc2ccccc2)cc(OC)c1OC (stereo not drawn) | -1.06
75 | Cc1cccc(OCC(=O)NCCN2CCOCC2)c1 | -0.244
76 | Cn1c(Cc2ccccc2)nnc1SCc1nc2ccccc2c(=O)[nH]1 | -1.69
77 | CSCC[C@H](NC(=O)C1CCN(S(=O)(=O)c2ccccc2)CC1)C(=O)NC1CC1 | 18.1
78 | O=C(CSc1nc(-c2ccco2)cc(C(F)(F)F)n1)N1CCN(c2ccc(Cl)cc2)CC1 | 6.11
79 | O=C(COc1ccc(Br)cc1Br)NNC(=O)c1cccs1 | 12
80 | Cc1ccc(N)c2c1OCCC2=O | 20.4
81 | CC1(C)CC(=O)C2=C(C1)NC(=O)CC2c1cc(F)ccc1F (stereo not drawn) | -21.6
82 | COc1ccc([N+](=O)[O-])cc1NC(=O)c1cccs1 | 4.41
83 | Cc1ccc(NC(=O)C(=O)NCCCN2CCCC2=O)cc1 | -7.59
84 | CC(NC(=O)c1cc2cc(F)ccc2[nH]1)c1ccccc1 (stereo not drawn) | 3.52
85 | COc1ccc(NS(=O)(=O)c2cccc(C(=O)NNC(=O)NCCCl)c2)cc1 | 20.3
86 | Cc1ccc(C)c(NC(=O)CSc2c(C)n[nH]c2C)c1 | 18.6
87 | OCc1cc(Br)ccc1OCc1nc2ccccc2s1 | 24.7
